Reference: patent US11969423B2, “Compounds” (GLAXOSMITHKLINE INTELLECTUAL PROPERTY DEVELOPMENT LIMITED, priority 2017, dated 2024)

These compounds were tested on Mycobacterium tuberculosis H37Rv in human macrophages THP-1 (assay: Mycobacterium tuberculosis H37Rv in human macrophages THP-1 inhibition assay (intracellular assay)). Conditions: Mycobacterium tuberculosis, H37RV, THP-1, intracellular, THP-1 macrophages, without the presence of ethionamide.

`O=C(CCC(F)(F)F)N1CCC(F)(c2cccnc2)CC1` [Example 2, 4,4,4-trifluoro-1-[4-fluoro-4-(3-pyridyl)-1-piperidyl]butan-1-one] and `O=C(CCC(F)(F)F)N1CCC(F)(c2ccccn2)CC1` [Example 33, 4,4,4-trifluoro-1-(4-fluoro-4-(pyridin-2-yl)piperidin-1-yl)butan-1-one] cannot be ordered by IC50: under 50 nM for the first, under 50 nM for the second.

`O=C(CCC(F)(F)F)N1CCC(c2cncc(F)c2)CC1` [Example 3, 4,4,4-trifluoro-1-[4-(5-fluoro-3-pyridyl)-1-piperidyl]butan-1-one] and `COc1cncc(C2CCN(C(=O)CCC(F)(F)F)CC2)c1` [Example 12, 4,4,4-trifluoro-1-[4-(5-methoxy-3-pyridyl)-1-piperidyl]butan-1-one] fall in the same range of IC50: 50 to 250 nM for the first, 50 to 250 nM for the second.

`O=C(CCC(F)(F)F)N1CCC(c2ccc(F)nc2)CC1` [Example 4, 4,4,4-trifluoro-1-[4-(6-fluoro-3-pyridyl)-1-piperidyl]butan-1-one] and `COc1ccc(C2CCN(C(=O)CCC(F)(F)F)CC2)cn1` [Example 10, 4,4,4-trifluoro-1-[4-(6-methoxy-3-pyridyl)-1-piperidyl]butan-1-one] fall in the same range of IC50: 50 to 250 nM for the first, 50 to 250 nM for the second.

Compared with `O=C(CCC(F)(F)F)N1CCC(c2ccc(C(F)(F)F)nc2)CC1` [Example 5, 4,4,4-trifluoro-1-[4-[6-(trifluoromethyl)-3-pyridyl]-1-piperidyl]butan-1-one], `O=C(CCC(F)(F)F)N1CCC(c2cccc(C(F)(F)F)n2)CC1` [Example 8, 4,4,4-trifluoro-1-[4-[6-(trifluoromethyl)-2-pyridyl]-1-piperidyl]butan-1-one] is lower in IC50: 1000 to 10000 nM for the first, 50 to 250 nM for the second.

Compared with `O=C(CCC(F)(F)F)N1CCC(c2cc(C(F)(F)F)ccn2)CC1` [Example 6, 4,4,4-trifluoro-1-[4-[4-(trifluoromethyl)-2-pyridyl]-1-piperidyl]butan-1-one], `O=C(CCC(F)(F)F)N1CCC(c2cccnc2C(F)(F)F)CC1` [Example 11, 4,4,4-trifluoro-1-[4-[2-(trifluoromethyl)-3-pyridyl]-1-piperidyl]butan-1-one] is higher in IC50: 50 to 250 nM for the first, 1000 to 10000 nM for the second. The first is the more potent here.

`O=C(CCC(F)(F)F)N1CCC(c2cccc(F)n2)CC1` [Example 9, 4,4,4-trifluoro-1-[4-(6-fluoro-2-pyridyl)-1-piperidyl]butan-1-one] and `O=C(CCC(F)(F)F)N1CCC(c2cccc(Cl)n2)CC1` [Example 27, 1-(4-(6-chloropyridin-2-yl)piperidin-1-yl)-4,4,4-trifluorobutan-1-one] fall in the same range of IC50: 50 to 250 nM for the first, 50 to 250 nM for the second.

First: O=C(CCC(F)(F)F)N1CCC(c2ncc(F)cc2F)CC1 [Example 13, 1-[4-(3,5-difluoro-2-pyridyl)-1-piperidyl]-4,4,4-trifluoro-butan-1-one]
Second: O=C(CCC(F)(F)F)N1CCC(c2cnc(F)c(F)c2)CC1 [Example 23, 1-(4-(5,6-difluoropyridin-3-yl)piperidin-1-yl)-4,4,4-trifluorobutan-1-one]
The IC50 of the first is higher: 50 to 250 nM for the first, under 50 nM for the second.

First: O=C(CCC(F)(F)F)N1CCC(c2ccc(F)cn2)CC1 [Example 17, 4,4,4-trifluoro-1-[4-(5-fluoro-2-pyridyl)-1-piperidyl]butan-1-one]
Second: O=C(CCC(F)(F)F)N1CCC(c2ccnc(F)c2)CC1 [Example 20, 4,4,4-trifluoro-1-(4-(2-fluoropyridin-4-yl)piperidin-1-yl)butan-1-one]
The IC50 of the first is higher: 50 to 250 nM for the first, 30 nM for the second. The second is the more potent here.

Compared with `O=C(CCC(F)(F)F)N1CCC(c2cncc(C(F)(F)F)n2)CC1` [Example 24, 4,4,4-trifluoro-1-(4-(6-(trifluoromethyl)pyrazin-2-yl)piperidin-1-yl)butan-1-one], `O=C(CCC(F)(F)F)N1CCC(c2cncc(Cl)n2)CC1` [Example 32, 1-(4-(6-chloropyrazin-2-yl)piperidin-1-yl)-4,4,4-trifluorobutan-1-one] is lower in IC50: 50 to 250 nM for the first, 40 nM for the second. The second is the more potent here.

`O=C(CCC(F)(F)F)N1CCC(c2ccncc2F)CC1` [Example 26, 4,4,4-trifluoro-1-(4-(3-fluoropyridin-4-yl)piperidin-1-yl)butan-1-one] and `O=C(CCCC(F)(F)F)N1CCC(c2cncc(Cl)c2)CC1` [Example 31, 1-(4-(5-chloropyridin-3-yl)piperidin-1-yl)-5,5,5-trifluoropentan-1-one] fall in the same range of IC50: 50 to 250 nM for the first, 50 to 250 nM for the second.

First: O=C(CCC(F)(F)F)N1CCC(F)(c2cncc(C(F)(F)F)c2)CC1 [Example 34, 4,4,4-trifluoro-1-(4-fluoro-4-(5-(trifluoromethyl)pyridin-3-yl)piperidin-1-yl)butan-1-one]
Second: O=C(CCC(F)(F)F)N1CCC(c2cncc(Cl)c2)C1 (stereo not shown) [Example 38, 1-(3-(5-chloropyridin-3-yl)pyrrolidin-1-yl)-4,4,4-trifluorobutan-1-one]
The IC50 of the first is lower: under 50 nM for the first, 1260 nM for the second. The first is the more potent here.

Same assay, conditions: intracellular, THP-1 macrophages, without the presence of ethionamide

`O=C(CCC(F)(F)F)N1CCC(c2ccnc(F)c2)CC1` [Example 20, 4,4,4-trifluoro-1-(4-(2-fluoropyridin-4-yl)piperidin-1-yl)butan-1-one] and `O=C(CCC(F)(F)F)N1CCC(c2cncc(Cl)n2)CC1` [Example 32, 1-(4-(6-chloropyrazin-2-yl)piperidin-1-yl)-4,4,4-trifluorobutan-1-one] cannot be ordered by IC50: under 50 nM for the first, under 50 nM for the second.

`O=C(CCC(F)(F)F)N1CCC(c2cncc(Cl)c2)C1` (stereo not shown) [Example 38, 1-(3-(5-chloropyridin-3-yl)pyrrolidin-1-yl)-4,4,4-trifluorobutan-1-one] gave an IC50 of 1000 to 10000 nM.
